Experimental data as given in PubChem BioAssay AID1345082 (National Center for Advancing Translational Sciences (NCATS), 2018).
The campaign covered roughly 94,000 compounds. About 4,000 (4.3%) were called active. This list was built around the results that the source calls inconclusive (neither active nor inactive); the mix of calls is not that of the screen. Calls come from the whole dose curve; as a rule, active = well fitted inhibition curve with a large enough effect; inconclusive = small, poorly fitted or top-dose-only effect; inactive = no such curve, though single readings can be large or run the other way. Potencies of inconclusive entries are doubtful fits and often do not repeat.

Test: Cytotoxic Profiling in NIH 3T3 Cell Line of Diverse Libraries Using Quantitative High-Throughput Screening; note: nearly all actives have a fitted effect of over 55% in size
Conditions: NIH 3T3 viability, CellTiter-Glo ATP luminescence, 48-72 h; activity change, negative = cytotoxicity: at 96.7 µM (top of the series); series mostly up to 96.7 µM
Method in brief: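 Luminescent ATP readout (CellTiter-Glo, 10 min RT) after 48 or 72 hr compound exposure of NIH 3T3 cells seeded at 400 cells/well in 1536-well format; quantitative HTS.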
% is set by controls: 0 for no effect and ±100 for the full control effect; potency is the fitted concentration of half-maximal effect; tags give direction and shape of the fitted curve.

Row | Structure (SMILES) | activity change, negative = cytotoxicity | Potency
1 | CCC(C)C(=O)NCc1cc2c(nc1OC)CN(CCc1ccccn1)C2=O (stereo not drawn) | inactive: -12.2% | 
2 | CN(C)c1ccc(C(=O)N2CCN3C(=O)c4cc(Br)ccc4NC(=O)[C@H]3C2)cc1 |  | inconclusive: 50.1 µM [inhibitor, partial curve, poor fit]
3 | O=C(c1ccc(Cl)cc1)N1CCOCC2(CN(Cc3ccccc3)C2)C1 |  | active: 3.16 µM
4 | CC(C)(C)c1cc(C(=O)N2CCN(c3ncccn3)CC2)nn2cccc12 |  | inconclusive: 50.1 µM [inhibitor, partial curve, poor fit]
5 | Cc1csc(NC(=O)c2nc3c(o2)CCN(CC2CC2)CC3)n1 |  | inconclusive: 79.4 µM [inhibitor, partial curve, poor fit]
6 | O=C(C1CCc2nnc(-c3ccc(Cl)nc3)n21)N1CCN(c2ncccn2)CC1 (stereo not drawn) | inactive: 2.53% | 
7 | COC[C@@H]1CN(C(=O)c2cc(C)oc2C)C[C@H]1c1nc(C2CC2)no1 |  | inconclusive: 70.8 µM [inhibitor, single point]
8 | O=C(NCc1ccncc1)c1ccc2c(c1)n(Cc1ccc(F)cc1)c(=O)c1ccnn12 |  | inconclusive: 39.8 µM [inhibitor, partial curve, poor fit]
9 | CCCCC(=O)N1CCC2(CC1)SCC(=O)N2c1ccc(OC)cc1 |  | inconclusive: 31.6 µM [inhibitor, full curve]
10 | CC1(C)[C@H](Cc2cc(CO)on2)C[C@@H]1NS(=O)(=O)c1ccc(F)cc1 |  | inconclusive: 89.1 µM [inhibitor, partial curve, poor fit]
11 | COc1ccc2cc1Nc1ccc(cc1)C[C@H](NCc1ccc(C)o1)C(=O)N(C)[C@H](C(=O)NCCC(C)C)C2 |  | inconclusive: 50.1 µM [inhibitor, partial curve, poor fit]
12 | CCC(=O)NCCC1CCN(C(=O)Nc2ccccc2F)CC1 | inactive: -0.397% | 
13 | Cc1ccc(F)c(C(CC(=O)NCc2ccco2)c2c[nH]c3ccc([N+](=O)[O-])cc23)c1 (stereo not drawn) |  | active: 31.6 µM
14 | O=C(CCc1nnn2c1CN(Cc1ccc(O)c(F)c1)CC2)NCc1ccccc1 |  | inconclusive: 39.8 µM [inhibitor, partial curve]
15 | COc1ccccc1-c1nc2nccc(-c3ccsc3)n2n1 |  | inconclusive: 70.8 µM [inhibitor, single point]
16 | O=C1Nc2ccccc2CN(CC2CCCCC2)C12CCNCC2 |  | inconclusive: 22.4 µM [inhibitor, full curve, poor fit]
17 | COCCNC(=O)N1CCN(c2cnccn2)CC(C(=O)O)C1 (stereo not drawn) | inactive: 3.06% | 
18 | CC#CC(=O)N1CCCC(C(=O)Nc2ccc(-c3cccc(OC)c3)cc2)C1 (stereo not drawn) |  | inconclusive: 50.1 µM [inhibitor, partial curve]
19 | O=C(NCCCc1ccccc1)C1CCCN1C(=O)c1cccc(-c2ccccn2)c1 (stereo not drawn) | inactive: -33.9% | 

Row | Structure (SMILES) | activity change, negative = cytotoxicity | Potency
20 | CC1(C(=O)NCc2cccnc2)CN(Cc2ccccc2)Cc2ccc(N3CCOCC3)nc21 (stereo not drawn) |  | inconclusive: 50.1 µM [inhibitor, partial curve, poor fit]
21 | COc1ccc(-c2nnc3ccc(N(C)Cc4ccccc4)nn23)nc1 |  | inconclusive: 3.55 µM [inhibitor, full curve, poor fit]
22 | CC1=C[C@@H](CNCc2ccco2)[C@H](C(C)C)C[C@H]1Cc1nnc(-c2ccccc2F)o1 |  | inconclusive: 56.2 µM [inhibitor, partial curve, poor fit]
23 | CN(C)C(=O)c1ccc(-c2cc(NC3CCCC3)nc3[nH]ccc23)o1 |  | inconclusive: 39.8 µM [inhibitor, full curve]
24 | COCCN(C)C(=O)c1ccc2c(c1)C1(CCN(C)C1)CN2CC1CC1 (stereo not drawn) |  | inconclusive: 112 µM [inhibitor, single point]
25 | O=C(c1cccc(O)c1)N1CCCC(CCc2cccc(C(F)(F)F)c2)C1 (stereo not drawn) |  | inconclusive: 50.1 µM [inhibitor, partial curve, poor fit]
26 | COc1ccc(-c2nc(C)nc3c2CN(C(=O)C2CCCC2)CC3)cc1 |  | inconclusive: 70.8 µM [inhibitor, single point]
27 | CC1=C[C@@H](CNC(=O)COc2ccccc2)[C@H](C(C)C)C[C@H]1CC(=O)NCc1ccccn1 |  | inconclusive: 44.7 µM [inhibitor, partial curve, poor fit]
28 | COc1cc(F)ccc1-c1ccc2c(n1)c(=O)ncn2CC1CC1 |  | inconclusive: 79.4 µM [inhibitor, partial curve, poor fit]
29 | CCC(=O)N1CCc2sc(C(=O)N3CCN(c4cccc(Cl)c4)CC3)cc2C1 |  | inconclusive: 28.2 µM [inhibitor, full curve]
30 | CN1CCC(OC2CCN(S(=O)(=O)c3cccc(Br)c3)CC2)CC1 |  | inconclusive: 50.1 µM [inhibitor, partial curve, poor fit]
31 | Cc1ccc(C)c(-c2cc3c(=O)n(CCNC(=O)c4ccc5ccccc5n4)ccn3n2)c1 |  | inconclusive: 50.1 µM [inhibitor, partial curve, poor fit]
32 | Cc1cccc(OCCc2noc(C3CCCCN3C(=O)Nc3ccccc3)n2)c1 (stereo not drawn) |  | inconclusive: 50.1 µM [inhibitor, partial curve, poor fit]
33 | CCOc1ccccc1NC(=O)Cn1c(N2CCCCC2)nc(C)c(C)c1=O |  | inconclusive: 56.2 µM [inhibitor, single point]
34 | CN(C)c1cc(=O)c2ccnc(-c3ccc(N4CCOCC4)cc3)c2o1 |  | inconclusive: 20 µM [inhibitor, full curve, poor fit]
35 | COC(=O)c1ccc2nc(C[C@@H]3C[C@@H](C(C)C)[C@H](CN)C=C3C)[nH]c2c1 |  | active: 63.1 µM
36 | CNC(=O)c1cc(C2CC2)nc2onc(C3CCN(C(=O)Cc4ccc(OC)cc4)CC3)c12 | inactive: -23.1% | 
37 | COc1ccc(C(=O)NC2CCN(c3cc(-c4ccc(Cl)cc4)[nH]n3)C2)cn1 (stereo not drawn) |  | inconclusive: 44.7 µM [inhibitor, partial curve, poor fit]
38 | N#Cc1ccccc1CN1CCNc2nc(CNc3ccc(F)cc3)n(Cc3ccccc3)c2C1=O |  | inconclusive: 39.8 µM [inhibitor, partial curve, poor fit]
